Reference: publication PMC4813479 (The Journal of Biological Chemistry, 2015)

Molecular target: T1, β3 subunit of the crystallized αIIbβ3 headpiece (UniProt P05106 27-497)
T1 construct: integrin β3 subunit, headpiece portion; as the β3 chain of m3; The β3 chain of m3, written alone for the pairs within the structures; also called β-subunit; source: recombinant; not shown: α-helical coiled-coil, C-terminal, cleaved
T1 sequence: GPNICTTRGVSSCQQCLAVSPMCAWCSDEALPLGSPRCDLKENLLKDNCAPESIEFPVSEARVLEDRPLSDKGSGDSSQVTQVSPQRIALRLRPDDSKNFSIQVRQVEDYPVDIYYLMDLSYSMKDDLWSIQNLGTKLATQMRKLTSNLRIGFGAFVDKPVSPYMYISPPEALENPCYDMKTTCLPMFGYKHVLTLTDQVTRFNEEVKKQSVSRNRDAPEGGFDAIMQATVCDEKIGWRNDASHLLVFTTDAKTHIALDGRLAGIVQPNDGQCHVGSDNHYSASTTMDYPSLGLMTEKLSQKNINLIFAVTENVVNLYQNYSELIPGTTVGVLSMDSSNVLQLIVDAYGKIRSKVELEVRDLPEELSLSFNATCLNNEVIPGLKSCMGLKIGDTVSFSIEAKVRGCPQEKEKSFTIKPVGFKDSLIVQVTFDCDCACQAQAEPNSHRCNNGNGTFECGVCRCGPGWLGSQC
Assay: crystal structure; closed αIIbβ3 headpiece-10E5 Fab crystals soaked with 50 mM peptide for 2 h or 1 week at 4 °C in Mn/Ca; 15% PEG 8000, 0.2 M ammonium sulfate, 0.1 M Tris-HCl, pH 8.9, 20% glycerol
Settings: both partners purified

B1: αIIb subunit of the crystallized αIIbβ3 headpiece (domain or fragment)
chain: not shown
notes: integrin αIIb subunit, headpiece with the thigh domain removed; as the αIIb chain of m3; The αIIb chain of m3, written alone for the pair of the two subunits in the structures; also called α-subunit; source: recombinant; not shown: α-helical coiled-coil, C-terminal, cleaved
binding result: binds
